Experimental data from PubChem BioAssay AID686978 (National Center for Advancing Translational Sciences (NCATS), 2013).
Several values for one entry are separate records, joined by “and”; a condition that tells them apart may be missing. Identical values can stand only once. The campaign covered roughly 420,000 compounds. About 64,000 (15%) were called active. Inconclusive means that the source gave no clear call. Such entries were picked first, then a sample of the others. Calls come from the whole dose curve; as a rule, active = well fitted inhibition curve with a large enough effect; inconclusive = small, poorly fitted or top-dose-only effect; inactive = flat fitted curve, though single readings scatter. Potencies of inconclusive entries are left out as doubtful fits.

Assay: qHTS for Inhibitors of human tyrosyl-DNA phosphodiesterase 1 (TDP1): qHTS in cells in absence of CPT; note: nearly all actives have a fitted effect of over 55% in size
Settings: DT40 Tdp1-/- hTDP1 cells, no CPT, ATP luminescence, 48 h; activity change, negative = growth inhibition: at 46.2 µM (top of the series) unless noted
How it was run: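 Growth kinetics read by CellTiter-Glo luminescence after ≥48 hr at 37 °C. Cells: DT40 Tdp1-/- stably carrying human TDP1, 400 per well, compound exposure in the absence of CPT (DMSO vehicle).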
% is set by controls: 0 for no effect and ±100 for the full control effect; potency is the fitted concentration of half-maximal effect; tags give direction and shape of the fitted curve.

**Q.** Which Potency does the source give for `CC/C(C)=N/NC(=O)c1[nH]c2ccc(C)cc2c1-c1ccccc1` here?
**A.** The Potency was inconclusive [inhibitor, single point].

**Q.** Which Potency does the source give for `CCOc1ccc(NC(=O)CCc2c(C)nc3c4c(C)cc(C)nc4nn3c2C)cc1` here?
**A.** Its Potency is “inactive”.

**Q.** Which Potency does the source give for `c1cc2c(c(CC3CO3)c1CC1CO1)OCCOCCOCCOCCO2` (stereo not drawn) here?
**A.** The Potency was active: 2.31 µM.

**Q.** With `CSc1ccc(N2CCN(CCCNC(=O)Nc3ccccc3F)CC2)cc1` as the molecule, how does the Potency read?
**A.** The Potency was inconclusive [inhibitor, single point].

**Q.** Which Potency does the source give for `O=C(Nc1nc(-c2ccccc2)nc2ccccc12)c1ccc(F)cc1` here?
**A.** Its Potency is inconclusive [inhibitor, single point].

**Q.** Which Potency does the source give for `CCOc1ccccc1NC1=CC(=O)CC(c2ccccc2)C1` (stereo not drawn) here?
**A.** The Potency was active: 13 µM.

**Q.** With `Oc1ccccc1/C=N/NC(=S)NC1CC2CC1C1C=CCC21` (stereo not drawn) as the molecule, how does the Potency read?
**A.** Its Potency is active: 4.11 µM.

**Q.** For `Cc1ccc(C)c(CSc2cn(CC(=O)N3CCCC3)c3ccccc23)c1`, which Potency is on record?
**A.** The Potency was inconclusive [inhibitor, single point].

**Q.** Which Potency does the source give for `Cc1cccc(N2CCN(C(=O)CCc3nc4ccccc4[nH]3)CC2C)c1` (stereo not drawn) here?
**A.** Its Potency is inconclusive [inhibitor, single point].

**Q.** Which activity change, negative = growth inhibition does the source give for `C1=C(CCNCC2CCCCC2)CCCC1` here?
**A.** Its activity change, negative = growth inhibition is inconclusive: -36.1% [inhibitor].

**Q.** With `CCOc1ccc(NC(=O)CCN2C(=S)NC(C)(C)CC2C)cc1` (stereo not drawn) as the molecule, how does the Potency read?
**A.** Its Potency is “inactive”.

**Q.** With `CC(O)CNCCCOc1ccc(Cl)cc1C(C)(C)C` (stereo not drawn) as the molecule, how does the Potency read?
**A.** The Potency was active: 13 µM.

**Q.** For `O=C(c1ccc(Cl)nc1)N1CCC(Cc2ccccc2)CC1`, which Potency is on record?
**A.** The Potency was “inactive”.

**Q.** With `CCN(c1ccccc1)S(=O)(=O)c1ccc(C(=O)NCC(c2cccs2)N(C)C)cc1` (stereo not drawn) as the molecule, how does the activity change, negative = growth inhibition read?
**A.** The activity change, negative = growth inhibition was inconclusive: -33% [inhibitor].

**Q.** For `O=C(Nc1ccc(F)c(F)c1)C1CCCN1S(=O)(=O)c1ccc(F)cc1` (stereo not drawn), which Potency is on record?
**A.** Its Potency is inconclusive [inhibitor, single point].

**Q.** For `O=C(N/N=C/c1ccoc1)c1cc(O)cc(O)c1`, which Potency is on record?
**A.** The Potency was “inactive”.

**Q.** With `CC1Sc2ccccc2N(Cc2ccc(OC(F)(F)F)cc2)C1=O` (stereo not drawn) as the molecule, how does the Potency read?
**A.** Its Potency is inconclusive [inhibitor, single point].

**Q.** With `COc1cc(C)c(/C=C(\C#N)C(=O)Nc2cccc(C)c2)cc1C(C)C` as the molecule, how does the Potency read?
**A.** Its Potency is inconclusive [inhibitor, single point].

**Q.** With `CN1CCC(CC(C(=O)N2CCCC2)(c2ccccc2)c2ccccc2)C1` (stereo not drawn) as the molecule, how does the Potency read?
**A.** The Potency was inconclusive [inhibitor, partial curve].

**Q.** With `COc1ccc(-c2[nH]ncc2CN(CCO)Cc2cccs2)c(F)c1` as the molecule, how does the Potency read?
**A.** Its Potency is inconclusive [inhibitor, partial curve].

**Q.** For `CCN(CCO)Cc1cc(=O)oc2c(C)c(C)ccc12`, which Potency is on record?
**A.** The Potency was “inactive”.

**Q.** Which Potency does the source give for `O=C(COC(=O)C1CCC1)NCCc1ccc(Cl)cc1Cl` here?
**A.** The Potency was “inactive”.

**Q.** With `CCOC(=O)c1ccc(Nc2ncccc2[N+](=O)[O-])cc1` as the molecule, how does the activity change, negative = growth inhibition read?
**A.** The activity change, negative = growth inhibition was inconclusive: -36.2% [inhibitor].

**Q.** Which Potency does the source give for `CC(NCc1ccc2c(c1)n(C)c(=O)n2C)c1ccccc1` (stereo not drawn) here?
**A.** The Potency was “inactive”.

**Q.** With `COC(=O)c1c(NC(=O)CSc2nc3ccccc3c(=O)n2Cc2ccco2)sc(C)c1C` as the molecule, how does the Potency read?
**A.** Its Potency is inconclusive [inhibitor, single point].

**Q.** With `COc1cc(NC(=O)CSc2cc(=O)n(C)c3ccccc23)cc(OC)c1OC` as the molecule, how does the Potency read?
**A.** Its Potency is inconclusive [inhibitor, single point].

**Q.** For `CCN(CC)c1ncnc2sc(C(=O)N3CCN(c4ccc(OC)cc4)CC3)c(C)c12`, which Potency is on record?
**A.** The Potency was inconclusive [inhibitor, single point].

**Q.** For `CCOC(=O)c1sc2ccccc2c1OC(=O)c1ccccc1OC`, which Potency is on record?
**A.** The Potency was inconclusive [inhibitor, single point].

**Q.** Which Potency does the source give for `Cc1cc(=O)[nH]c(N2CCN(C(=O)c3ccco3)CC2)n1` here?
**A.** Its Potency is “inactive”.

**Q.** For `CCOc1ccc(N(CC(=O)Nc2c(C)n(C)n(-c3ccccc3)c2=O)S(=O)(=O)c2ccccc2)cc1`, which Potency is on record?
**A.** Its Potency is “inactive”.

**Q.** Which Potency does the source give for `Cc1c(C(=O)N(C)Cc2ccccc2)sc2nc(-c3ccc(F)cc3)cn12` here?
**A.** The Potency was inconclusive [inhibitor, single point].

**Q.** With `CCOc1ccc(-c2nn3c(-c4cc(-c5ccccc5)n[nH]4)nnc3s2)cc1` as the molecule, how does the Potency read?
**A.** The Potency was active: 5.62 µM and active: 14.1 µM.

**Q.** For `O=C(Nc1ccccc1)c1cccc(NC(=O)c2ccco2)c1`, which Potency is on record?
**A.** Its Potency is “inactive”.

**Q.** Which Potency does the source give for `CN1CCN(c2ccc(NC(=O)c3cc4ccccc4o3)cc2)CC1` here?
**A.** Its Potency is inconclusive [inhibitor, single point].

**Q.** Which Potency does the source give for `O=C(NCc1ccccc1)C(=O)NCC1OCCN1C(=O)c1ccc(Cl)cc1` (stereo not drawn) here?
**A.** Its Potency is “inactive”.

**Q.** Which Potency does the source give for `OC(c1nc2ccc(F)cc2[nH]1)C(O)c1nc2ccc(F)cc2[nH]1` (stereo not drawn) here?
**A.** Its Potency is “inactive”.

**Q.** With `Cc1ccc(S(=O)(=O)Nc2ccc(Br)cc2/C=N/n2cnnc2)cc1` as the molecule, how does the Potency read?
**A.** The Potency was active: 29.1 µM.

**Q.** Which Potency does the source give for `Cc1cc(NC(=O)CCc2ccc(S(=O)(=O)N3CCOCC3)cc2)n(-c2ccccc2)n1` here?
**A.** Its Potency is active: 8.2 µM.

**Q.** For `CCOC(=O)c1cc(-c2ccc(OC)cc2F)nc2c1c(C)nn2CCC#N`, which Potency is on record?
**A.** Its Potency is inconclusive [inhibitor, single point].

**Q.** Which Potency does the source give for `C=CCOc1ccc(C2/C(=C(\O)c3c(C)[nH]c(C(=O)OC)c3C)C(=O)C(=O)N2CCN(C)C)cc1` (stereo not drawn) here?
**A.** Its Potency is “inactive”.

**Q.** With `Nc1nc(N2CCN(c3ccccn3)CC2)nc2ccccc12` as the molecule, how does the Potency read?
**A.** Its Potency is inconclusive [inhibitor, partial curve].

**Q.** With `O=C(CN1CCN(CC(=O)Nc2ccccc2Cl)CC1)NCC1(N2CCOCC2)CCCCC1` as the molecule, how does the Potency read?
**A.** The Potency was inconclusive [inhibitor, single point].

**Q.** For `CC1CCc2c(sc(/N=C/c3ccco3)c2C(N)=O)C1` (stereo not drawn), which Potency is on record?
**A.** The Potency was “inactive”.

**Q.** Which Potency does the source give for `CNc1c(NC(=O)c2ccc3c(c2)OCO3)c(=O)oc2ccccc12` here?
**A.** The Potency was “inactive”.

**Q.** Which Potency does the source give for `O=C(Nc1cc(S(=O)(=O)Nc2ccc(Cl)cc2)ccc1N1CCCCC1)c1ccc(F)cc1` here?
**A.** The Potency was active: 18.4 µM.

**Q.** For `Brc1ccc(NC(c2ccccc2)c2ccncc2)cc1` (stereo not drawn), which Potency is on record?
**A.** Its Potency is inconclusive [inhibitor, full curve, poor fit].

**Q.** For `CN1OC[C@@H]2CN(Cc3cc(Cl)cc(Cl)c3)[C@H](c3cccc(-c4ccc(C#N)cc4)c3)C[C@@H]21`, which Potency is on record?
**A.** The Potency was inconclusive [inhibitor, single point].

**Q.** With `CCOC(=O)c1sc(NC(=O)c2ccco2)nc1-c1ccccc1` as the molecule, how does the Potency read?
**A.** Its Potency is inconclusive [inhibitor, single point].
